In all, about 110,000 compounds went through this assay and about 230 (0.21%) showed an effect of 50% or more. The list shows a part of the results.
target: DPAP1 (Plasmodium falciparum, UniProt Q8IIJ9); assay: primary screen, percent inhibition; read by cleavage of a fluorogenic dipeptide substrate; higher = more effect of the substance; design: species or system P. falciparum D10 trophozoite lysates; single well
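Also: 30 min substrate incubation versus DMSO and 10 µM JCP410 controls.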

Sequence of DPAP1 (Q8IIJ9 whole entry, looked up): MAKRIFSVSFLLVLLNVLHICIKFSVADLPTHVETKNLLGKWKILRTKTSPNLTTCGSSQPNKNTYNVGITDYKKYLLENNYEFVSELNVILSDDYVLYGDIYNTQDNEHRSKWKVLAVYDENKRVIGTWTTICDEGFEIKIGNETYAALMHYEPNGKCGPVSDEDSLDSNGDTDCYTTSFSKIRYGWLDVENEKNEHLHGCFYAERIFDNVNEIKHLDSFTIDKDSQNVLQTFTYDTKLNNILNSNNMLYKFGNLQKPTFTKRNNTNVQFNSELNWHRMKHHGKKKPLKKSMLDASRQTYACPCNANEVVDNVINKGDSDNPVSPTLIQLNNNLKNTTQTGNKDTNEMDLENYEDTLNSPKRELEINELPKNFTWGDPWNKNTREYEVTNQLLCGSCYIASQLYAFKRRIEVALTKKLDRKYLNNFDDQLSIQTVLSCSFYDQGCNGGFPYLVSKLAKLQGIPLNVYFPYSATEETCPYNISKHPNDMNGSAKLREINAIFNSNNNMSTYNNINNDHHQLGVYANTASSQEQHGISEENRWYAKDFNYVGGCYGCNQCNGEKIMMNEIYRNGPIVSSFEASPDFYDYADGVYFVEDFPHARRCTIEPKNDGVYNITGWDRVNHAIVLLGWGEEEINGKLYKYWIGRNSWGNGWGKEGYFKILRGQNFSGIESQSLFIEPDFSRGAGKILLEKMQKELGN

| SMILES | % Inhibition @ 10 uM |
| --- | --- |
| COc1ccc(CN2CSC3=C(C#N)C(c4cccs4)CC(=O)N3C2)cc1 (centres unmarked) | 50.8% |
| O=c1[nH]nc(SCc2ccccc2)c(=S)[nH]1 | -0.0267% |
| Cc1cc(O)c(C2=NCCSC(c3ccccc3O)C2)c(=O)o1 (centres unmarked) | 4.54% |
| COCCOC(=O)c1c(C)n(Cc2ccccc2F)c2c1cc(O)c1ccccc12 | 1.76% |
| CCCCCCOc1ccc(CNCCCOCC)cc1 | 5.23% |
| Brc1ccc(OCCN2CCOCC2)cc1 | -11.4% |
| O=C1CCCCCN1CP(=O)(O)CN1CCCCC1 | 0.219% |
| O=C(O)CCP(=O)(O)CN1CCCCC1 | -2.77% |
| Cn1c(CC(=O)c2ccc(F)cc2)nccc1=O | -7.94% |
| CCOC(=O)c1c(C)n(Cc2ccco2)c2cc(-c3ccc(F)cc3)c(O)cc12 | 6.96% |
| O=C(O)c1cccc(NS(=O)(=O)c2cccc(C(=O)Nc3ccccc3)c2)c1 | -0.0217% |
| CC(=O)Nc1ccc(C(=O)Nc2ccc(CC(=O)O)cc2)cc1 | 3.29% |
| O=C(COc1ccc(Cl)cc1Cl)Nc1ccccc1Cl | 4.22% |
| Cc1ccc(CN(CC(=O)NC2CCCC2)S(=O)(=O)c2ccccc2)cc1 | 3.89% |
| Cc1cccc(NS(=O)(=O)c2ccc(F)cc2)c1 | -5.32% |
| CC1(C)CC2=Nc3ccccc3NC(c3ccc(F)cc3)C2=C(O)C1 (centres unmarked) | -6.34% |
| CCN(CC)CCNC(=O)C1CCCN(c2nnc(-n3cccc3)s2)C1 (centres unmarked) | 1.15% |
| COc1ccc(Cl)cc1NC(=O)c1cccc(C)c1 | -2.6% |
| CCOc1ccccc1NC(=O)c1ccccc1[N+](=O)[O-] | -6.12% |
| CCc1ccccc1NC(=O)CN(c1ccc(Cl)cc1C)S(C)(=O)=O | -1.43% |
| O=C(c1ccc(Cl)cc1Cl)n1cnc2ccccc21 | 1.25% |
| COc1ccc(-c2cc(OC(=O)c3ccccc3C)c3c(C)oc(C)c3c(=O)c2)cc1OC | 2.21% |
| O=C(Nc1ccc(-c2nc3cc(Cl)ccc3o2)cc1)c1cccc2ccccc12 | -0.591% |
| CC1CCN(S(=O)(=O)c2ccc(C(=O)OCC(=O)c3ccc(Br)cc3)cc2)CC1 | 5.38% |
| Clc1ccc(C2=Nn3c(nnc3-c3ccc4c(c3)OCO4)SC2)cc1Cl | 3.38% |

| SMILES | % Inhibition @ 10 uM |
| --- | --- |
| CC(C)C[C@H](NC(=O)c1ccnc(N2CCCCC2)c1)C(=O)NCC#N | -2.35% |
| Cc1ccc(OCC(=O)Nc2ccc(N3CCN(C)CC3)cc2)cc1 | 4.57% |
| Cc1cccc(-c2nc(CSc3nnc(C)n4c3cc3occc34)c(C)o2)c1 | -9.18% |
| O=C(O)c1cc(S(=O)(=O)N2CCCCC2)ccc1O | -4.75% |
| CC(C)(C)c1ccc(-c2nnc3sc(-c4ccccc4F)nn23)cc1 | 9.4% |
| CN1CCN(C(=O)CN(Cc2ccccc2)S(C)(=O)=O)CC1 | 1.59% |
| COc1ccc(C)cc1N(CC(=O)Nc1ccccc1)S(=O)(=O)c1ccccc1 | -4.13% |
| Oc1nnnc2c1cnn2-c1ccccc1 | 0.596% |
| Cc1ccc(CNC(=O)c2cc3c(=O)oc4ccccc4c3s2)o1 | 1.08% |
| Cc1ccc(S(=O)(=O)NCCNC(=O)CN2CCOCC2)cc1 | 1.25% |
| CN(Cc1ccccc1)S(=O)(=O)c1ccc(Cl)nc1 | -0.891% |
| CCOC(=O)C(C#N)c1nc2ccccc2nc1N1CCCCC1 (centres unmarked) | 0.989% |
| O=C(O)CSc1ccc(Cl)c(Cl)c1 | -6.71% |
| CC(C)CCNC(=O)C1CCN(c2nc3ccccc3o2)CC1 | 0.387% |
| Cc1c(C(=O)NC(C)c2ccccc2)oc2ccc(S(=O)(=O)N3CCCCCC3)cc12 (centres unmarked) | 1.07% |
| Fc1ccc(-c2cn3nc(-c4ccccc4)n4c3c2CCCC4)cc1 | 1.03% |
| COc1cc2c(cc1OC)C(COc1ccc(F)cc1)N(C(=O)/C=C/c1ccc3c(c1)OCO3)CC2 (centres unmarked) | 1.62% |
| COCCNC(=O)c1oc2c(c1C)-c1nn(Cc3ccc(Cl)cc3)cc1CC2 | -0.326% |
| COc1ccc(S(=O)(=O)Nc2ccccc2C)cc1 | 1.91% |
| N=C1SC2CS(=O)(=O)CC2N1CCc1ccccc1 (centres unmarked) | -4.75% |
| CCN(C(=O)COc1ccc(Br)cc1Cl)c1ccccc1 | -6.17% |
| CCOc1c(Cl)cc(CNc2nc[nH]n2)cc1OC | 0.032% |
| CC[C@H](NC(=O)[C@H](CS(=O)(=O)Cc1ccccc1OC(F)F)NC1=NS(=O)(=O)c2ccccc21)C(=O)c1nc2ccccc2o1 | 1.61% |
| CC1CCN(S(=O)(=O)c2ccc(F)c(C(=O)O)c2)CC1 | -3.23% |
| COc1cc2nc(O)c3c(C)nc(C)c(C(=O)O)c3c2cc1OC | -1.85% |

Reference: paper PMC6919601, “Identification of Plasmodium dipeptidyl aminopeptidase allosteric inhibitors by high throughput screening” (PLoS ONE, 2019)
